Assay results reported in PubChem BioAssay AID504332 (National Center for Advancing Translational Sciences (NCATS), 2011).
The campaign covered roughly 350,000 compounds. About 31,000 (8.9%) were called active. The inconclusive results got no clear call from the source; some entries with a clear call stand among them for comparison. The call rests on the fitted dose curve; in most records, active means well fitted inhibition curve with a large enough effect; inconclusive means small, poorly fitted or top-dose-only effect; inactive means no such curve, though single readings can be large or run the other way. Potencies of inconclusive entries are doubtful fits and often do not repeat.

target: Histone-lysine N-methyltransferase EHMT2 (Homo sapiens) (UniProt Q96KQ7); assay: qHTS Assay for Inhibitors of Histone Lysine Methyltransferase G9a; settings: G9a H3K9 monomethylation, AlphaScreen, 2 h; activity, negative = inhibition: at 59 µM (top of the series) unless noted; further: nearly all actives have a fitted effect of over 75% in size
UniProt Q96KQ7, sequence (Q96KQ7 whole entry, looked up): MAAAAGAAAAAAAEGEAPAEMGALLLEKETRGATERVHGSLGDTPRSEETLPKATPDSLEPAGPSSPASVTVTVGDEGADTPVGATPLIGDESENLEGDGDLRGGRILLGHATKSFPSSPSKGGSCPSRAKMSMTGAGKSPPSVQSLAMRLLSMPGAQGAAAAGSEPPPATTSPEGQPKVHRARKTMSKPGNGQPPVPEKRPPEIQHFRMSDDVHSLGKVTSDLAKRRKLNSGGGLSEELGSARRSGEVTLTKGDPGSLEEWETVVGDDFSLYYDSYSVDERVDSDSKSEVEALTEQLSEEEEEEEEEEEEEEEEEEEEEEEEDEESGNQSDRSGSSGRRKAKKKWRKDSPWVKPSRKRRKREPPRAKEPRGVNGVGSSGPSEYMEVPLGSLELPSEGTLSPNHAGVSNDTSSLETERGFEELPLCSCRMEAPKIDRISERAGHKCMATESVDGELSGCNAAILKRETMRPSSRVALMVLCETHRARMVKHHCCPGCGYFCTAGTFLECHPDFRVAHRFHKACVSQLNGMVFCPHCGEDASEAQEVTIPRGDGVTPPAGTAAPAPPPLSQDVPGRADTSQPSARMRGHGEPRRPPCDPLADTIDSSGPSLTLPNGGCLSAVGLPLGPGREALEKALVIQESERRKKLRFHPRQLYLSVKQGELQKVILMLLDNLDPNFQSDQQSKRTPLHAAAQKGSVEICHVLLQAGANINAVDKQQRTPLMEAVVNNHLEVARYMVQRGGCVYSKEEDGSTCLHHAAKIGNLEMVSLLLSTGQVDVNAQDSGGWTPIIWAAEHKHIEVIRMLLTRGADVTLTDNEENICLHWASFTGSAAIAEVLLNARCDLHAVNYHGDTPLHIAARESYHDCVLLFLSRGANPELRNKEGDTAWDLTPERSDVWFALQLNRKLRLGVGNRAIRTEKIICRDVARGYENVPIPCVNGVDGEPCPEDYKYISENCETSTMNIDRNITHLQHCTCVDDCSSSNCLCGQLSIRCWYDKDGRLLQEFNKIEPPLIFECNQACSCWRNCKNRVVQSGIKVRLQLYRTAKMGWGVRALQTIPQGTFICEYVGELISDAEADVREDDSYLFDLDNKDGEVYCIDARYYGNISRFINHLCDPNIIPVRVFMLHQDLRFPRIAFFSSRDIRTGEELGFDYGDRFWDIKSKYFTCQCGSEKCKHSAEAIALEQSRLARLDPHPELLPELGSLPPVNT
How it was run: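 Chemiluminescent proximity detection of H3K9 monomethylation, read after 10 min bead incubation in the dark. Reaction: 20 nM G9a, 500 nM biotin-H3K9 peptide, 20 uM SAM cofactor, 2 h, room temperature, following 15 min enzyme-compound preincubation.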
On the % scale 0 is the no-effect control and ±100 the full control effect; potency means the concentration at half of the fitted maximal effect; tags describe the fitted curve by direction and shape.

Row | SMILES | Potency | activity, negative = inhibition
1 | CCOC(=O)c1c(C)oc2c1c(C(c1cccnc1)N1CCOCC1)c(O)c1ccccc12 (configuration not stated) | active: 3.98 µM | –
2 | COC(=O)C1=C(N)OC2=C(C(=O)CC(C)(C)C2)C1c1cccnc1 (configuration not stated) | inconclusive: 89.1 µM [inhibitor, single point] | –
3 | CN(C)c1nc(-c2cccc(NS(C)(=O)=O)c2)nc2ccccc12 | – | inactive: 2.25% [at 0.501 µM]
4 | Cc1sc(NC(=S)NC(=O)C2CCCCC2)c(C(N)=O)c1C | inconclusive: 39.8 µM [inhibitor, single point] | –
5 | Cc1cccc(-c2nc(CN3CCN(Cc4cccc(F)c4)CC3)c(C)o2)c1 | inconclusive: 79.4 µM [inhibitor, single point] | –
6 | CCOc1ccc(NC(=S)N2CCN(C/C=C/c3ccccc3)CC2)cc1 | inconclusive: 56.2 µM [inhibitor, partial curve, poor fit] | –
7 | CC1Sc2n(c3ccccc3[n+]2C)N=C1c1ccccc1 (configuration not stated) | inconclusive: 2.82 µM [inhibitor, partial curve, poor fit] | –
8 | CC1CN(c2ccc([N+](=O)[O-])c(NCCOc3ccccc3)c2)CC(C)N1 (configuration not stated) | inconclusive: 50.1 µM [inhibitor, partial curve] | –
9 | COc1ccc(NC(=O)c2c(C)noc2C(C)C)cc1S(=O)(=O)N1CCCCC1 | inconclusive: 3.55 µM [inhibitor, partial curve, poor fit] | –
10 | COc1ccc(-n2c(COc3ccccc3)nnc2SCC(N)=O)cc1 | active: 44.7 µM | –
11 | CC1=C(c2ccc(C(C)C)cc2)S(=O)(=O)N=C1N1CCN(c2ccccc2F)CC1 | inconclusive: 31.6 µM [inhibitor, partial curve, poor fit] | –
12 | CCN(CC)CCCNCC(=O)Nc1ccc2c(c1)CCC2 | active: 35.5 µM | –
13 | COc1cc(NC(=O)Cn2nnc(-c3ccccc3N)n2)cc(OC)c1 | inconclusive: 79.4 µM [inhibitor, single point] | –
14 | Cc1ccc(S(=O)(=O)Nc2cc(C)c(O)cc2C)cc1 | active: 50.1 µM | –
15 | Cc1cccc(C(=O)Nc2ccc(C(=O)N3CCCCC3C)cc2)c1 (configuration not stated) | – | inactive: 52.3% [at 102 µM]
16 | Cc1ccc(-c2nc(S(=O)(=O)c3ccc(F)cc3)c(N3CCN(c4ccccc4)CC3)o2)cc1 | – | inactive: -16.9%
17 | COc1ccc2c(c1)C1(C)CC(C)(C)N2C(=O)N1c1ccccc1 (configuration not stated) | inconclusive: 63.1 µM [inhibitor, partial curve, poor fit] | –
18 | O=C(NCc1ccccc1)/C(=C/c1ccccc1)NC(=O)c1ccco1 | – | inactive: 25.4%
19 | c1csc(-c2cn3ccc4ccccc4c3n2)c1 | inconclusive: 35.5 µM [inhibitor, partial curve] | –
20 | CCCS(=O)(=O)c1nc(S(=O)(=O)c2ccc(C)cc2)c(N2CC(C)OC(C)C2)s1 (configuration not stated) | active: 50.1 µM | –
21 | COCCn1nnnc1C(c1ccccn1)N1CCN(c2cc(Cl)ccc2C)CC1 (configuration not stated) | – | inconclusive: -64.6% [inhibitor]
22 | CCOCCCNC(=O)c1c[nH]c2ccc(S(=O)(=O)N(C)c3ccc(Cl)cc3F)cc2c1=O | – | inactive: 2.04%
23 | CCOC(=O)c1ccc(NC(=O)c2c(NCc3sccc3C)sc3c2CCC(C)C3)cc1 (configuration not stated) | inconclusive: 10 µM [inhibitor, partial curve] | –

Row | SMILES | Potency | activity, negative = inhibition
24 | N#CC1=C(N)NC(SCC(=O)c2ccc(Br)cc2)=C(C#N)C12CCCCC2 | active: 39.8 µM | –
25 | NC(=O)c1nc(Nc2ccccc2)sc1NC(=O)c1c(F)cccc1F | – | inactive: -1.84%
26 | CCC(=O)Nc1c(-c2ccc(C)cc2)nc2ccc(C)cn12 | inconclusive: 0.158 µM [inhibitor, full curve, poor fit] | –
27 | CC(C)c1ccc(NC(=O)COC(=O)c2c[nH]c(=O)[nH]c2=O)cc1 | active: 15.8 µM | –
28 | C[n+]1cnn2c1SCC1(COC1)C2 | active: 35.5 µM | –
29 | CCOc1ccc(N2C(=O)CC(N(C)Cc3ccccc3)C2=O)cc1 (configuration not stated) | inconclusive: 79.4 µM [inhibitor, single point] | –
30 | Cc1nc(SCC(=O)N2CCC(Cc3ccccc3)CC2)[nH]c(=O)c1C | inconclusive: 89.1 µM [inhibitor, partial curve, poor fit] | –
31 | COc1ccc(-c2ccc(C3C(C#N)=C(N)Oc4n[nH]c(C)c43)o2)cc1 (configuration not stated) | inconclusive: 44.7 µM [inhibitor, partial curve, poor fit] | –
32 | CCCCCCCCCC[n+]1cccc(C(=O)N(CC)CC)c1 | inconclusive: 14.1 µM [inhibitor, partial curve, poor fit] | –
33 | COc1ccc(-n2c(Cc3cccn3C)nnc2SCC(=O)NCc2ccco2)cc1 | inconclusive: 79.4 µM [inhibitor, partial curve, poor fit] | –
34 | O=c1c2ccccc2nc(/C=C/c2cccc(Br)c2)n1CCCO | inconclusive: 11.2 µM [inhibitor, partial curve, poor fit] | –
35 | Cc1ccc(S(=O)(=O)CC(=O)Nc2ncc([N+](=O)[O-])s2)cc1 | inconclusive: 89.1 µM [inhibitor, single point] | –
36 | CC(=O)Nc1ccc(S(=O)(=O)Nc2ccc(C)c([N+](=O)[O-])c2)cc1 | inconclusive: 50.1 µM [inhibitor, partial curve, poor fit] | –
37 | Cc1ccc2nc3c(cc(C#N)c(=O)n3-c3nnc(SCc4ccc(F)cc4)s3)c(=O)n2c1 | – | inactive: -22.2%
38 | Cc1ccc(OCCCC(=O)Nc2ccc(S(=O)(=O)Nc3cc(C)on3)cc2)cc1 | inconclusive: 79.4 µM [inhibitor, single point] | –
39 | CCSc1nc(N)c(C#N)c(-c2ccccc2Cl)c1C#N | active: 15.8 µM | –
40 | Cc1ccc(-c2nnn(CC(=O)Nc3ccc(S(=O)(=O)N4CCC(C)CC4)cc3)n2)cc1 | inconclusive: 79.4 µM [inhibitor, single point] | –
41 | CCC(c1nnnn1CCOC)N1CCN(c2nc3ccccc3s2)CC1 (configuration not stated) | inconclusive: 15.8 µM [inhibitor, single point] | –
42 | CC(=O)Nc1ccc(NC(=O)COC(=O)Cc2cccs2)cc1 | inconclusive: 89.1 µM [inhibitor, single point] | –
43 | CCCn1c2ccccc2c2cnn(CC(=O)NCC3CCN(Cc4ccc(C)cc4)CC3)c(=O)c21 | inconclusive: 35.5 µM [inhibitor, partial curve, poor fit] | –
44 | COc1ccc2nc(Nc3nc(CSc4ccc(C)cc4)cc(=O)[nH]3)nc(C)c2c1 | inconclusive: 3.98 µM [inhibitor, single point] | –
45 | COCCn1c(SCC(=O)NN2C(=O)NC(C)(c3ccccc3)C2=O)nnc1-c1ccncc1 (configuration not stated) | inconclusive: 11.2 µM [inhibitor, single point] | –
46 | CCN(C(=O)COC(=O)CCC(=O)c1cccs1)c1c(N)n(Cc2ccccc2)c(=O)[nH]c1=O | – | inactive: -8.16% [at 102 µM]

Row | SMILES | Potency | activity, negative = inhibition
47 | CC(C)C[C@H](NC(=O)c1[nH]cnc1C(=O)Nc1ccccc1)C(=O)OC(C)(C)C | – | inactive: -0.616% [at 12.7 µM]
48 | COc1ccc(CCNC(=O)CCCCn2c(=O)c3ccccc3n(Cc3cc(C)ccc3C)c2=O)cc1OC | – | inactive: 4.9%
49 | COc1cc(/C=N/NC(=O)/C(=C/c2ccccc2)CCO)ccc1O | – | inactive: 25.1%
50 | O=C(CN(Cc1ccco1)C(=O)Cn1nnc(-c2cccs2)n1)NCc1ccccc1 | inconclusive: 70.8 µM [inhibitor, partial curve] | –
51 | Cc1ccc(NC(=O)NC2=NN(c3ccccc3)C(=O)/C2=C2/CCCN2C)cc1 | – | inactive: -46.1% [at 102 µM]
52 | O=C(c1ccsc1)N1CCCC(N2CCN(c3ccccc3F)CC2)C1 (configuration not stated) | inconclusive: 70.8 µM [inhibitor, partial curve, poor fit] | –
53 | Cc1ccc(C)n1-c1ccc(N2CCOCC2)cc1 | inconclusive: 3.98 µM [inhibitor, partial curve, poor fit] | –
54 | CCOC(=O)N1CCN(S(=O)(=O)c2ccc(C)cc2)C1c1ccc(OC)cc1 (configuration not stated) | inconclusive: 79.4 µM [inhibitor, single point] | –
55 | CCCCNC(=S)N1CCn2cccc2C1c1ccc(F)cc1 (configuration not stated) | inconclusive: 89.1 µM [inhibitor, single point] | –
56 | CC1CC(C)(C)N2C(=O)C(=C(C#N)C#N)c3cccc1c32 (configuration not stated) | inconclusive: 79.4 µM [inhibitor, partial curve, poor fit] | –
57 | COc1ccc2c(c1)c(C(O)CN1CCC(Cc3ccccc3)CC1)c(C)n2C (configuration not stated) | inconclusive: 28.2 µM [inhibitor, single point] | –
58 | CCOC(=O)c1cnc(SCC(=O)N2CCc3ccccc32)nc1N | – | inconclusive: -61.1% [inhibitor]
59 | COc1ccc(C(=O)NCCNc2nc3ccc(C)cc3cc2C#N)cc1 | active: 44.7 µM | –
60 | CCOC(=O)C1CCCN(C(=O)C2CCN(c3nnc(-n4cccc4)s3)CC2)C1 (configuration not stated) | inconclusive: 89.1 µM [inhibitor, single point] | –
61 | Clc1cccc(CN2COc3c(cc(Cl)c4cccnc34)C2)c1 | inconclusive: 25.1 µM [inhibitor, single point] | –
62 | O=C(NCCCN1CCOCC1)c1ccc2c(c1)N(Cc1c(F)cccc1Cl)C(=O)c1ccccc1S2 | active: 35.5 µM | –
63 | CNC(=O)c1[nH]cnc1C(=O)N[C@@H](CCCCNC(=O)OC(C)(C)C)C(=O)OC(C)(C)C | – | inconclusive: -82.9% [inhibitor]
64 | CCOC(=O)c1sc(NC(=O)C2CC=CCC2C(=O)O)nc1C (configuration not stated) | inconclusive: 11.2 µM [inhibitor, partial curve, poor fit] | –
65 | Cc1cc2oc(=O)cc(CN3CCCCC3)c2cc1C | – | inactive: -4.52% [at 102 µM]
66 | Cc1cc(=O)n(Cc2cccc(Cl)c2)c2c1c(C)nn2C | – | inactive: 109%
67 | Cc1cc(=O)oc2cc(OCC(=O)N/N=C/c3cc([N+](=O)[O-])ccc3O)ccc12 | inconclusive: 28.2 µM [inhibitor, full curve] | –
